Measured values as given in PubChem BioAssay AID602393 (Broad Institute, 2012).
Out of some 350,000 compounds screened, about 7,000 (2%) were called active. The shares of active, inactive and inconclusive entries below differ from those in the screen. Rule as the data show it: active = activation above about 40%; inconclusive = no clear call, values can overlap the other calls; inactive = below that.

Assay: raisers of Bmi1 knock-in reporter signal – mouse ES cells, Bmi1 luciferase knock-in, single point, esBAF inhibitor project, primary screen (AID 602393);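 also: 0% = median of the plate's neutral control wells and 100% = double that signal; a rise in the Bmi1 reporter signal indicates esBAF inhibition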
Conditions: 24 h, at 12.5 µM, hits give high values, 100% = twice the neutral-well signal

Reporter increase, active:
O=C(NC(=S)Nc1ccc2c(c1)OCCO2)c1ccccc1F 54%, CCO/C(C)=N/Oc1cnc2ccccc2c1 65.8%, Nc1c(-c2cccc([N+](=O)[O-])c2)nc2ccccn12 59%, Clc1ccc(-c2nnc(-c3cccc4ccccc34)o2)cc1 71%, Cc1cc(NC(=O)c2ccccc2F)ncc1NC(=O)c1cccs1 49.6%, OC1CCN(c2c3c(nc4cc(-c5cccc(F)c5)nn24)CCCC3)CC1 104%

Reporter increase, inactive:
C[n+]1ccc(/C=C/c2cccs2)cc1 -9.23%, CO[C@H]1CN(C)C(=O)c2cc(NC(=O)c3cnccn3)ccc2OC[C@H](C)N(C)C[C@H]1C -1.55%, CO[C@@H]1CN(C)C(=O)c2cc(NC(=O)Nc3c(C)noc3C)ccc2OC[C@H](C)N(CCC(F)(F)F)C[C@@H]1C 2.37%, COc1ccccc1S(=O)(=O)N(C)C[C@@H]1Oc2cc(C#CCC(C)C)ccc2S(=O)(=O)N([C@@H](C)CO)C[C@@H]1C 1.28%, Cn1cc(-c2coc3c(C(=O)Nc4ccccc4)cccc23)cn1 8.08%, C[C@H](CO)N1C[C@H](C)[C@@H](CN(C)Cc2ccccc2)Oc2ccc(NS(=O)(=O)c3ccc(Cl)cc3)cc2C1=O -5.31%, C[C@@H]1CN([C@H](C)CO)C(=O)c2cccc(NC(=O)C3CCCCC3)c2O[C@H]1CN(C)C(=O)Nc1ccccc1 0.925%, O=C(CCc1ccccc1)Nc1nc2n(n1)C(c1ccccc1)CC(=O)N2 (stereo unspecified) -9.06%, C[C@H]1CN([C@@H](C)CO)C(=O)CCCn2cc(nn2)CO[C@H]1CN(C)Cc1cccnc1 -6.3%, CN(C)CCNC(=O)Cc1ncc(C(F)(F)F)cc1Cl -0.417%, C[C@@H]1CN([C@H](C)CO)C(=O)Cc2cc(NS(=O)(=O)c3cccs3)ccc2O[C@H]1CN(C)S(=O)(=O)c1ccc(F)cc1 0.56%, O=C(Nc1cc(F)ccc1F)N[C@@H]1C=C[C@@H](CC(=O)N2CCc3ccccc3C2)O[C@H]1CO 3.12%, CC(C)NC(=O)N[C@H]1C=C[C@H](CC(=O)NCCN2CCCC2)O[C@@H]1CO -2.39%, COc1ccc(NS(=O)(=O)c2ccc(N3CCOCC3)c(NC(=O)c3ccc(F)cc3)c2)cc1 13.6%, CSc1nc2ccc(NC(=O)c3ccc(=O)[nH]c3)cc2s1 1.41%, Cc1ccc(Nc2nc(=O)[nH]nc2C)cc1 1.8%, COc1ccc(S(=O)(=O)Nc2ccc3c(c2)C(=O)N([C@@H](C)CO)C[C@@H](C)[C@H](CN(C)S(=O)(=O)c2cccs2)OCCCC[C@@H](C)O3)cc1 7.87%, CC(=O)c1ccc(OCC(=O)Nc2ccccc2C(=O)NC2CC2)cc1 -3.52%, O=C(O)C1=C[C@H](c2ccc3c(c2)OCO3)C[C@H](OCCCCO)O1 -7.18%, CCCC(=O)Nc1ccc2c(c1)C(=O)N(C)C[C@H](OC)[C@H](C)CN(C(=O)CC1CC1)[C@@H](C)CO2 -4.36%

Reporter increase, inconclusive:
CN1CCN(C(=O)C[C@@H]2CC[C@@H]3[C@H](COC[C@@H](O)CN3C(=O)Nc3ccc4c(c3)OCO4)O2)CC1 41.5%, Cc1ccc(OCC(=O)Nc2sc3c(c2C#N)CCC3)cc1C 43.5%, COc1cccc2c1OCC(C(=O)Nc1nccs1)=C2 53.6%, Cc1ccc(NC(=O)c2cc3c(s2)CCCC3)cc1 25.9%, CCc1cc(C(=O)NNC(=S)Nc2ccccc2C)cs1 49%, NC(=O)C1CC(=O)N(c2ccc(OCc3ccc(Cl)cc3)cc2)C1 (stereo unspecified) 39%, COc1ccc(C(CNC(=O)c2sccc2C)N2CCOCC2)cc1 (stereo unspecified) 48.4%, COc1cc(C(=O)Nc2ccc3c(c2)OCCO3)ccc1OC(C)C 44.1%, S=C(NCc1ccco1)N1CCN(c2ccccc2Cl)CC1 45.5%, COc1cccc(NC(=O)CC(=O)c2ccccc2)c1 51.5%, O=[N+]([O-])c1cccnc1Oc1ccc(OCc2ccccc2)cc1 48.1%, CC(C)(C)C(=O)COC(=O)c1cc2ccccc2cc1O 48.6%, O=C(c1cc(COc2c(F)cccc2F)on1)N1CC[C@@H]2CCCC[C@H]2C1 49.4%, COc1ccc(NC(=O)C#Cc2ccccc2)cc1 42.1%, Cc1cccc(N=Nc2c(O)[nH]c3ccc(Br)cc23)c1 45.7%, Oc1ccccc1/C=N/Nc1ccccc1 40.3%, COc1ccc(C(=O)Nc2cc(C)c(NC(=O)c3ccccn3)cn2)cc1 41.3%, O=S(=O)(Nc1ccc(O)c2ncccc12)c1ccccc1F 43.2%, CCOC(=O)Cc1csc(NC(=O)Nc2cccs2)n1 27.9%, Cc1c(C(=O)N2CCCCC2)oc2ccccc12 41.4%, Cc1ccc(OCC(=O)Nc2ccccc2C(N)=O)cc1 43.9%, OC(c1ccccc1)c1ncc(-c2cccc(F)c2)[nH]1 (stereo unspecified) 40.1%, CN(C)c1ccc(C(CNC(=O)c2ccco2)N2CCCC2)cc1 (stereo unspecified) 45.6%, COc1cccc(NC(=O)CNCc2ccccc2)c1 41.5%, O=C(Nc1ccc([N+](=O)[O-])cn1)c1ccc(Br)o1 40.1%, Cc1csc(NC(=O)c2cccc(Cn3nc(C)c(Br)c3C)c2)n1 41.3%, CC(=NNC(=O)CSc1nc2ccccc2o1)c1ccco1 41.3%, CCCN(C(=O)c1ccco1)c1nnc(-c2cccc(C)c2)s1 43.2%, O=C(NCc1cccs1)c1cc(-c2ccc(O)cc2)on1 42.1%, CCN(CC)S(=O)(=O)c1cccc(NC(=O)c2cc3ccccc3o2)c1 42%
